Consider 14 molecules from publication PMC12136788.

This is one part of the list.

T1: UNK ZnF1-3 (human, UniProt Q9C0B0 31-174)
T1 sequence: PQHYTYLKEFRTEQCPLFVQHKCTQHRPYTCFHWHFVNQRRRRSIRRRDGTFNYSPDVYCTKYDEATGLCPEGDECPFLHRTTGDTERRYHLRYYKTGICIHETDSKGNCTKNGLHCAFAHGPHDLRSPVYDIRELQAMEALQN

B1: chr17:55916980:55916981:-_ENSG00000181610_ENST00000313608|hu_mus|motif|central (ssRNA)
RNA: GGGAGUUCUACAGUCCGACGAUCCAAAGCUGGUGCUUUCAAACCACAGUACUGAGAUUCAUAACAUCCCGAAAACAGGGACGGAGAGAAGGCACACGUGCCUGAGAGAUGGAGGCCAUCAGAGUCCAUCAGCUUGGGCCAGCGCAACAGAGGAUUGAGCAUCA
B2: 112512530_112513563_1003_3pUTR_ENSG00000111300_ENST00000261745|human|control|control (ssRNA)
RNA: GGGAGUUCUACAGUCCGACGAUCAAUCGAAAUAAGUCAGAUAGAACUGCCAGUCAUCUGAGUUUUUUAGUAAGAGGCGCCGGGAAAGGGCAUUGCACUCUGGCCACCUGCUCAGCUUCUUGUACAUAGCCAUGCAUUUAUUUUCAACAGAGGAUUGAGCAUCA
B3: 36985904_36986024_3150_CDS_ENSG00000164190_ENST00000448238|human|control|control (ssRNA)
RNA: GGGAGUUCUACAGUCCGACGAUCAGUUGGUGAUUUAAAACCAAGUUUAUCAGAUCUUGAUUUAUUAGAAUCUCCUUGUUUAACACGAGGACUGUCAGGUCUUGAUUUUUGUUCCCCAGAAGAUGGUCUUUCCCUUGAGUCCCCCAACAGAGGAUUGAGCAUCA
B4: chr11:86533019:86533020:-_ENSMUSG00000047126_ENSMUST00000103186|perfect_dup|FALSE|FALSE (ssRNA)
RNA: GGGAGUUCUACAGUCCGACGAUCAAGAAGAUGGGUGUGAACCACUGCACGUUUUAUAUCAUAUAAAUCAGUGAAAUGUUCUAAUGCACGCUGCAGUAGGCCAGCCUUUUCACACAGUUGAGCAAUAUGAGCCCGGUCAUAAUGCAACAGAGGAUUGAGCAUCA
B5: chr1:213302989:213302990:+_ENSG00000136643_ENST00000366960|hu_mus|FALSE|FALSE (ssRNA)
RNA: GGGAGUUCUACAGUCCGACGAUCAGAAGCAACAGCCCCUACUGCCGAAGAAUCCGUAGACAGACUCAGACCAAAGGUUCUACUGGGAGAACCCUGACGGGAAGCCAUUCCAUCAUCUACCUCGGCAAGAGAGUCUGCAUCAACCAACAGAGGAUUGAGCAUCA
B6: chr7:149068622:149068623:-_ENSMUSG00000025139_ENSMUST00000001950|mus_hu|mus_mus_mus_hu_False|58_108 (ssRNA)
RNA: GGGAGUUCUACAGUCCGACGAUCGUGCAGGUACUGAGUGUGGCUUGUGGUCUGUCCUGGGUUAGAGUUGUUAAUAUCACUAAGUGGACCAUCUAGAACGUUCCAGUCCCGCCUGACACCUUCAUUCCCAAUGGAGAAGAAAUCCAACAGAGGAUUGAGCAUCA
B7: 187079632_187082414_1919_3pUTR_ENSMUSG00000039318_ENSMUST00000069652|mouse|control|control (ssRNA)
RNA: GGGAGUUCUACAGUCCGACGAUCACAAAACUGUAGCAGUCCUUCAUCAACAGACUCAAGCUCUUGGUUUUUUAAAGUGUCCAUUAAAGUCUGAGUAACAUUUCUAAGGCAGGAAAACGAUAAACGGUCACUGGCCAAAAUGCUCAACAGAGGAUUGAGCAUCA
B8: chr5:23655024:23655025:+_ENSMUSG00000028986_ENSMUST00000030841|mus_hu|motif|central (ssRNA)
RNA: GGGAGUUCUACAGUCCGACGAUCAUUAUAGCAGUCCAUUCGCUUUAUUGGGAAAAGCUGAGAGCCUCCCAAAAUGUAUACGGCAUUGUCCCAAAACACGCAUGCUGCAUCUCUUCGUUUUUCAAAGGGGCAGCGGAUGUCUGUCAACAGAGGAUUGAGCAUCA
B9: chrX:102632674:102632675:+_ENSG00000166681_ENST00000361298|hu_hu|FALSE|FALSE (ssRNA)
RNA: GGGAGUUCUACAGUCCGACGAUCGUGAUUAGAGAGCUCCCCCAUAAGGAUACGCAGACAAUUCCUCAACUGCAGCUCCCUAAGUUUUCUUCUGAUUUCUCUCAUCUCCUCCAUGAAUAUUUCCAUAUCAUCUCCAUCUCCACCCAACAGAGGAUUGAGCAUCA
B10: chr10:5788261:5788262:+_ENSG00000108021_ENST00000328090|hu_hu|FALSE|FALSE (ssRNA)
RNA: GGGAGUUCUACAGUCCGACGAUCGUAAGUCCUGGUGAAUGUGGCUUGAGUAACAGUGCCACUGUAAGAAGCCACUCUUGUGCUAUCCAGUGGCUGAACAAUUUCUUCUUCACUAGGAACAGAAGGUCCAUUAGUUUGUGUACUCAACAGAGGAUUGAGCAUCA
B11: 5094788_5094908_1562_3pUTR_ENSMUSG00000020393_ENSMUST00000020662|mouse|control|control (ssRNA)
RNA: GGGAGUUCUACAGUCCGACGAUCAGCAGCCAGGCUGGUACAUGUGAUGGAGGAUCCCAGGCUGGGCUGCCUCUAAAGCAGGGUGCUCCCAAAAGAGAUGGUGGUGAAUGGGAAGGCAGGGAACUCAUCAGAGGAGAACUCAGGCAACAGAGGAUUGAGCAUCA
B12: chr1:6239374:6239375:+_ENSMUSG00000025907_ENSMUST00000027040|mus_mus|motif|central (ssRNA)
RNA: GGGAGUUCUACAGUCCGACGAUCCUCCUGUGUGUGCCUGAUGUGCAGUGUGUCCUCUAAUUCCUUCAGGUGAUUUUGUUCGGAGCACUGAAAUUCAGCUCUCAAUGACUCGAUUUUUUCAUCAUGCAGCUUUUUCAGGUCUUCCAACAGAGGAUUGAGCAUCA
B13: chr8:9988343:9988344:+_ENSMUSG00000040396_ENSMUST00000048216|mus_mus|motif|central (ssRNA)
RNA: GGGAGUUCUACAGUCCGACGAUCUGUUUUUGUCAUGUCUUCGGGAGAAUGACUCUUGAUCACUUCCUUGAUAAAUUGUUCGGGUGCAGUGAAGUAGCCUUGGCACUGCCAUGUGUCGUUGUGCGUCCCAUCUGGGAAAAUGGCCAACAGAGGAUUGAGCAUCA
B14: 165204038_165204158_3870_3pUTR_ENSMUSG00000017667_ENSMUST00000103084|mouse|control|control (ssRNA)
RNA: GGGAGUUCUACAGUCCGACGAUCUUGUGUGUGUGCAUGUUAUAUCACACUUGUGGAAAUCAGGGUAGCGUGUAAGAAAAUCAGUUCUCUCUAUUACGUGAGACGGAAGGUCUGAACUCGGGUUGUCAGGCUUGCCAGCAAGCACAACAGAGGAUUGAGCAUCA

The assay concerns the target T1, UNK ZnF1-3. In words: nsRBNS (natural sequence RNA bind-n-seq); RBNS binding buffer (assumed for nsRBNS): 25 mM Tris pH 7.5, 150 mM KCl, 3 mM MgCl2, 0.01% Triton X-100, 500 ug/ml BSA, 20 U/ml SUPERase-In, 4 C; UNK is unkempt and MSI1 is Musashi-1; names of the RNAs are library labels; protein concentration not given here; high values mean tight binding.
Take B1: the binding signal turned out to be 1.11 enrichment R.
As to B2, the binding signal is 0.992 enrichment R.
Molecule B3 came in with a binding signal of 0.501 enrichment R.
As for B4, the binding signal came to 1.24 enrichment R.
With B5, the binding signal amounted to 1.48 enrichment R.
For B6, the binding signal stood at 1.05 enrichment R.
Next, B7: 0.854 enrichment R; B8: 0.552 enrichment R; B9: 0.921 enrichment R.
In turn, B10 registered a binding signal of 0.686 enrichment R.
Regarding B11, the binding signal turned out to be 1.71 enrichment R.
Molecule B12 gave a binding signal of 0.566 enrichment R.
B13 returned a binding signal of 0.722 enrichment R.
In turn, B14 came in with a binding signal of 1.19 enrichment R.
